# Measurements as given in publication PMC4336329 (PLoS ONE, 2015).
# The whole screen tested about 310,000 compounds, of which about 14,000 (4.5%) showed an effect of 50% or more. Effects have a minus sign here. This is one part of the list.
# Target: human ether-à-go-go-related gene (hERG) potassium channel (human, UniProt Q12809)
# Assay: primary screen, population patch clamp on CHO cells stably expressing hERG
# 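Further: peak tail current of the secondary pulse compared with the same well before compound.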
# human ether-à-go-go-related gene (hERG) potassium channel, sequence (Q12809 whole entry, looked up): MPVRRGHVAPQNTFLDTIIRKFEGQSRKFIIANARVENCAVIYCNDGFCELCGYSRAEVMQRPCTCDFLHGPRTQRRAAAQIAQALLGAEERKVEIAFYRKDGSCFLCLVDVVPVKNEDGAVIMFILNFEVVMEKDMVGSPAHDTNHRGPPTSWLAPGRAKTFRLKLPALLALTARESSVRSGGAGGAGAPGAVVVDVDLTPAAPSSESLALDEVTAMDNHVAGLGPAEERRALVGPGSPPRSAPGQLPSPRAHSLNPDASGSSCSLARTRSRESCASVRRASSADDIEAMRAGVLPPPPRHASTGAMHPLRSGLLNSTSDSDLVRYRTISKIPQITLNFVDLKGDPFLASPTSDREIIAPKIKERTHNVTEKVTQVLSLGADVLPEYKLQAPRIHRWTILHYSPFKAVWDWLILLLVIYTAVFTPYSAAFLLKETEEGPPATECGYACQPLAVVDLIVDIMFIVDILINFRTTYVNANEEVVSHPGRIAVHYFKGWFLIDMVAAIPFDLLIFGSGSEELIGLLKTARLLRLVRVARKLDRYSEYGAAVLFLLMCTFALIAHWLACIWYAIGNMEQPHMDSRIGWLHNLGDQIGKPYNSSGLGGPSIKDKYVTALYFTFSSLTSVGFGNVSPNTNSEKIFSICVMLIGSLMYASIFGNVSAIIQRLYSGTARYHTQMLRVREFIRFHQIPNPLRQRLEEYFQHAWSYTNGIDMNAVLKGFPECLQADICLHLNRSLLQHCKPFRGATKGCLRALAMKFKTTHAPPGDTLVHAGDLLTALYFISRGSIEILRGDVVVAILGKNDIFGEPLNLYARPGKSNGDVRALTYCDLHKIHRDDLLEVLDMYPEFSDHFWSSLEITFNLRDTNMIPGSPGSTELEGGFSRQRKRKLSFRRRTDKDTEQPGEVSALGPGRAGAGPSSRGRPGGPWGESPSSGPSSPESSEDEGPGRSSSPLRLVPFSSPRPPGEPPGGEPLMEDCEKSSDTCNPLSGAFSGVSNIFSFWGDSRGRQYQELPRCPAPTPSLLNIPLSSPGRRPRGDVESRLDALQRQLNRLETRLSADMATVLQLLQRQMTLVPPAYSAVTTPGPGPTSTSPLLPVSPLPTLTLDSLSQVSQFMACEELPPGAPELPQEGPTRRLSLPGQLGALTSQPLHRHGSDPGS
row,SMILES,"hERG current change (%, negative = inhibition) at 10uM"
1,CCOC(=O)C1=C(C)N(c2ccc(OCC)cc2)C(=O)/C1=C\c1ccco1,8.11%
2,CCOc1ccc(C(=O)C(CN2CCOCC2)c2ccccc2)cc1.Cl (centres unmarked),-8.5%
3,Cc1ccc(NC(=O)COC(=O)c2cccc3c2C(=O)c2ccccc2C3=O)c(C)c1,-38.6%
4,O=C(Nc1cccc2ncccc12)c1cc2ccccc2o1,-12.8%
5,COc1ccc(N(C=O)C(=S)SC)cc1,8.27%
6,CCc1nc(N2CCN(C(=O)c3ccco3)CC2)c2oc3ccccc3c2n1.Cl,-64.8%
7,COc1ccc(CC(=O)NCc2n[nH]c(=S)n2-c2cccc(Cl)c2)cc1,7.32%
8,O=c1c(S(=O)(=O)c2ccc(Cl)cc2)cn(Cc2ccccc2)c2ccc(F)cc12,6.02%
9,CC(C)(O)CC[C@@H](O)[C@](C)(O)[C@H]1CC[C@@]2(O)C3=CC(=O)[C@@H]4C[C@@H](O)[C@@H](O)C[C@]4(C)C3CC[C@]12C (some centres unmarked),-5.1%
10,Cn1c(C2=C(O)CN(Cc3ccccc3)C2=N)nc2ccccc21,4.82%
11,Cc1ccc(C)c(S(=O)(=O)N2CCN(C(=O)c3ccc(C)s3)CC2)c1,-32.1%
12,O=C(Nc1ccc2c(c1)OCCO2)C(c1ccc(F)cc1)N1CCCCC1 (centres unmarked),-0.538%
13,COc1ccc(C(=O)OCC(=O)Nc2ccc(N3CCOCC3)cc2)cc1,7.25%
14,Cc1nc2c(C(=O)N3CCCC3)cnn2c(C)c1Cc1c(F)cccc1Cl,-25.7%
15,O=C(NCc1ccc2c(c1)OCO2)c1cc(-c2ccncc2)nc2ccccc12,-67%
16,NC(=O)Cn1nc([N+](=O)[O-])nc1Oc1ccc(Br)cc1,2.26%
17,Cn1cc(Cl)c(C(=O)N/N=C/c2ccc(OS(=O)(=O)c3ccccc3)cc2)n1,-33.1%
18,Cc1cccc(CSc2nc3c(cc2C#N)CCC3)c1,13.7%
19,CC(=O)Nc1ccccc1C(=O)C(=O)Nc1ccc(Cl)cc1,8.48%
20,CC(/C=C/c1ccccc1)=N/NC(=O)Cn1nnc(N)n1,13.3%
21,O=C(OCc1ccc(COC(=O)c2cccnc2Cl)cc1)c1cccnc1Cl,28.7%
22,Cc1ccc(C(=O)N2CCCCCC2)cc1S(=O)(=O)N1CCOCC1,0.405%
23,N#C/C(=N\Nc1ccccc1[N+](=O)[O-])C(=N)N1CCCCC1,33.8%
